# Over roughly 33,000 sequences, “E-score (-0.5 to 0.5)” has its median near -0.056; the highest 2% begin near 0.38. Some of the results follow.
# Molecular target: Stb4 (UniProt P50104)
# Assay: PBM E-score (8-mer binding enrichment) (E-score (-0.5 to 0.5)); higher = stronger / more preferred TF binding; most listed sequences are background and not binding sites
# Conditions: protein concentration: 200 nM; construct: GST-DNA-binding domain
# Summary of the method: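 Using PURExpress in vitro transcription/translation, GST-tagged yeast transcription factors were made in full-length or DNA-binding-domain form. These were applied at about 100-200 nM to double-stranded universal all-10-mer Agilent arrays, and bound protein was detected with fluorescent anti-GST. Scans were normalised with masliner before the Universal PBM Analysis Suite assigned E-scores to ungapped eight-base words pooled with their reverse complements.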
row,Sequence,PBM E-score
1,ACCGGAAG,0.388
2,AGAGCTAT,-0.288
3,GTCTACAC,-0.0696
4,CATCCCTA,-0.133
5,CCTACTGC,-0.132
6,AACTAACA,-0.0147
7,GTCAGTAA,-0.177
8,AATATCCG,0.452
9,ATTAGCCA,-0.26
10,CCGGGGAC,0.157
11,GTCTATCA,-0.0168
12,ACATGATA,0.00881
13,ACAGGAAA,0.101
14,ACCTCGAA,-0.105
15,CCCCTCAA,-0.131
16,AAGGTGTG,-0.059
17,GGGCTTAC,0.0623
18,ACAGGGCT,-0.41
19,GTACCCCA,-0.0156
20,CTACGTCC,0.106
21,ACATTACC,0.131
22,ATTTAAGA,-0.159
23,ACGTAGCC,0.0222
24,CCCGTGGC,0.101
25,AATCCAAA,-0.0619

row,Sequence,PBM E-score
1,GCCACCTA,-0.125
2,GTGCAGCA,-0.0895
3,CATGGGCA,-0.103
4,AATTCACG,0.0309
5,GCTGTTCA,-0.106
6,ACAGAATA,0.036
7,GAATACAC,-0.0318
8,TAGGACAA,-0.255
9,GCAAGTGA,-0.0836
10,AGGTTACA,-0.181
11,GAGTACAA,0.081
12,ATAGTGAA,-0.127
13,CCCGAGCA,0.405
14,CGGACAAC,0.198
15,CCAAGTGC,-0.0592
16,GACCCGGA,0.323
17,GACATGGC,-0.14
18,CATACCCG,0.348
19,ACACGCCC,0.0932
20,GGAATCAA,0.224
21,ACCTACAC,-0.343
22,GACCGGCA,0.212
23,GTGATGAA,-0.174
24,TCCCAAGA,0.00213
25,GTAATGCA,-0.0927

row,Sequence,PBM E-score
1,CACATGAC,-0.231
2,AATAATGT,-0.0686
3,CGAACGGA,0.327
4,ACAAACAT,0.0555
5,AAAAGCTG,-0.15
6,GTAACGCA,-0.0681
7,CCAGAGTC,-0.319
8,ATGTCTTA,-0.207
9,CCAGCTAA,-0.373
10,ATTCAGTA,-0.0971
11,ACACGGGT,0.165
12,GGGTAACC,0.18
13,AAATATTC,0.0462
14,CGAGTAAA,0.143
15,CCCTTGGC,-0.228
16,GTCTGGGA,-0.232
17,AAATAGAA,-0.148
18,GATATTAC,0.185
19,AGCGGTGC,-0.305
20,CGCGTTTC,0.065
21,CATGCAGA,-0.123
22,CTAGGCTA,-0.153
23,AGCGGCAC,0.0262
24,AATCGTAT,-0.129
25,AGGTGTAG,-0.208

row,Sequence,PBM E-score
1,ACCTTGCC,0.0883
2,ACGCCAAC,-0.0436
3,GGCCGAGA,0.347
4,TGCTGGAA,-0.00327
5,CAACACAG,-0.278
6,GGCGTTGA,-0.0341
7,GTTACTGA,0.0988
8,AACGCGTA,-0.0979
9,AGAACACG,0.0149
10,GGCACTAC,-0.0281
11,CGATTTAG,0.133
12,GCGCTAAA,-0.0799
13,GTTCGTTA,-0.0433
14,AAGTCGGT,0.225
15,CGGTTGAG,0.151
16,ATGTGCGG,0.146
17,ACTATTCC,0.211
18,GGTACTGA,0.00824
19,GAGTCGCC,0.0554
20,CGGAATAC,0.374
21,ATCGTACA,-0.00518
22,AGGTCTCA,-0.0444
23,CATCCTAG,-0.164
24,AGGAAGAG,-0.0507
25,ACACTCTA,-0.00882

row,Sequence,PBM E-score
1,ACGGAGAG,0.117
2,TACTAAAA,-0.0363
3,TCCTCACA,-0.122
4,ACCCGTCT,0.0939
5,AAATGTCA,-0.0833
6,GAGAGTGA,-0.17
7,CACTCTTA,-0.263
8,GACACCTC,-0.0244
9,CTTGAAAC,0.114
10,GCGTGTCA,-0.00144
11,GCCCGGGC,0.282
12,ACTCCAGA,-0.286
13,CTTCGACA,-0.0919
14,ACTAGTAG,-0.0993
15,AGAACGAT,-0.296
16,ATGCGCAC,-0.0567
17,CAAACGAC,0.011
18,AGGGCGAA,-0.0324
19,AAAGCGTG,-0.0283
20,CCTGAGGC,-0.268
21,CCAGCCCA,-0.161
22,CCGAACGA,0.379
23,GGGAAACA,0.175
24,ATTTTTTA,0.0837
25,AATGTATG,-0.146

row,Sequence,PBM E-score
1,AGCCCGCG,0.0998
2,TGTCGGAA,0.416
3,GATCGCCA,-0.102
4,CATCCATG,-0.22
5,GACCGGAA,0.316
6,ACTAAATC,0.0611
7,CACACGGC,0.132
8,AAAGATGA,-0.0904
9,CAGTATAG,-0.123
10,AGATTGAG,-0.0826
11,GGAAGTGA,0.245
12,CAATCACC,-0.0604
13,AAGATGAC,-0.304
14,CGCGCGCC,0.0774
15,CAAAACGC,0.0775
16,CGCTTTAC,-0.0267
17,AACGGGGA,-0.08
18,GCCAAGGA,-0.135
19,CGTGTTTA,-0.00808
20,CGCGGACA,0.107
21,GCCTGCGA,-0.339
22,TCATCCAA,-0.191
23,AATGAACT,0.231
24,GCAATTGA,-0.136
25,CTGTTAGC,0.0754

row,Sequence,PBM E-score
1,GCGGGAGA,0.227
2,AAGAAGGA,-0.131
3,TGAGTGCA,-0.0867
4,GAGTCAAC,0.0604
5,AAGGATAT,-0.0336
6,CCCGCAAG,-0.203
7,ACACCGCA,0.0369
8,AATTTTTA,0.0424
9,AACACCCG,0.4
10,AATTAGGA,-0.00464
11,ACAGAGGC,-0.126
12,ATAAGTAC,-0.0437
13,CCAAGGCG,-0.124
14,ATTAAGGG,-0.207
15,GACACCGC,-0.0266
16,CGTTTTTC,0.0065
17,CCGCAGAC,0.0637
18,CCTACGCG,-0.00082
19,AGTGCTCG,0.0663
20,GCTAGGAA,-0.0752
21,CCAACAGA,-0.177
22,CACCTACC,-0.0395
